Experimental data taken from paper PMC6919601, “Identification of Plasmodium dipeptidyl aminopeptidase allosteric inhibitors by high throughput screening” (PLoS ONE, 2019).
In all, about 110,000 compounds went through this assay and about 230 (0.21%) showed an effect of 50% or more. Some of the results follow.

Molecular target: DPAP1 (Plasmodium falciparum, UniProt Q8IIJ9)
Assay: primary screen, percent inhibition; read by cleavage of a fluorogenic dipeptide substrate; higher = more effect of the substance
Set-up: species or system P. falciparum D10 trophozoite lysates; single well
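Also: 30 min substrate incubation versus DMSO and 10 µM JCP410 controls.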

DPAP1, sequence (Q8IIJ9 whole entry, looked up): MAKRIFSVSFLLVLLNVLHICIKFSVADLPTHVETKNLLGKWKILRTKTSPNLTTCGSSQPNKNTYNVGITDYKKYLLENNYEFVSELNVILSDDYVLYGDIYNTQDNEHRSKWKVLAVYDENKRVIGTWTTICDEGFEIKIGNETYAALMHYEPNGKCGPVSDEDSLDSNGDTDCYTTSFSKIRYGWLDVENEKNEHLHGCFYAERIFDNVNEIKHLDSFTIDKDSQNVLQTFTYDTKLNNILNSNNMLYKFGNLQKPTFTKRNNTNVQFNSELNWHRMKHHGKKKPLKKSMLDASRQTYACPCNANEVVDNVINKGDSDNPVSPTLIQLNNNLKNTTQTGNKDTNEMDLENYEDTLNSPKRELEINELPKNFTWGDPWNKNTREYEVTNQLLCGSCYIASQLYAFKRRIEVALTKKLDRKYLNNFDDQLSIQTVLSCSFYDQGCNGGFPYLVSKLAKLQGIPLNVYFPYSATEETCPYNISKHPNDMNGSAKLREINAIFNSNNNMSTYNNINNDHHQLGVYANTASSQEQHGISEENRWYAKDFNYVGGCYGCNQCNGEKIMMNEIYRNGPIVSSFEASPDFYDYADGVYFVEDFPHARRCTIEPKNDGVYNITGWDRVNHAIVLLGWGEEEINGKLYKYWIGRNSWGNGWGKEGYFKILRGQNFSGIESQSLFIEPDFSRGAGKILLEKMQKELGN

Compound | % Inhibition @ 10 uM
COc1nc(-c2ccccc2)ccc1-c1noc(-c2ccccc2)n1 | -1.33%
COc1ccc2[nH]c3c(c2c1)CCNC31CCC(C(C)(C)C)CC1 (stereo not drawn) | -1.85%
CS(=O)(=O)c1ncc(Cl)c(C(=O)N(Cc2ccc(Cl)cc2)C2CCS(=O)(=O)C2)n1 (stereo not drawn) | -2.85%
CC1CC(C)CN(C(=O)CSc2ncccc2C(=O)O)C1 (stereo not drawn) | -2.26%
Fc1ccc(N2CCN(Cc3cccc(C(F)(F)F)c3)CC2)cc1 | 1.55%
COCCCn1c(=N)c(C(=O)OC)cc2c(=O)n3cc(C)ccc3nc21 | -3.27%
COC(=O)c1cnn2c1NCN(Cc1ccc3c(c1)OCO3)C2 | 3.96%
CCOc1ccc(C2CC(=O)N3CN(CCc4ccccc4)CSC3=C2C#N)cc1 (stereo not drawn) | 71.1%
O=C(CN1C(=O)S/C(=C/c2cccn2-c2ccc(O)cc2)C1=O)N1CCN(c2ccccc2)CC1 | 2.22%
COc1ccc(C(=O)Nc2nc3nc(C)cc(C)n3n2)cc1 | 0.401%
O=C(c1ccccc1)C12CN3CN(CN(C3)C1)C2 | -6.65%
O=C(CCn1nc(-c2ccccc2)ccc1=O)NC1CCCCC1 | -7.35%
O=C(CCCc1nnc2n(Cc3ccccc3)c(=O)c3ccccc3n12)NC1CCCCC1 | -1.71%
CC(=O)Nc1nc2ccccc2n1CCN1CCCC1 | -5.11%
O=C(c1ccncc1)N1CCN(Cc2cccc(Cl)c2)CC1 | -5.66%
O=c1[nH]c(/C=C/c2ccccc2Cl)c([N+](=O)[O-])c(=O)[nH]1 | -4.58%
COC(=O)c1cc(S(=O)(=O)N2CCCN(Cc3ccc(F)cc3)C2)c[nH]1 | 6.31%
CCOC(=O)c1c(NC(=O)c2cc(OC)c(OC)c(OC)c2Br)sc2c1CCCC2 | 5.23%
COc1ccc(NC(=O)C(Cc2cc(C)cc(C)c2)C(C)C(=O)O)cc1 (stereo not drawn) | 1.92%
O=c1c2c(-c3ccccc3)csc2nc2c3ccccc3c(N3CCN(CCO)CC3)nn12 | 0.323%
Cn1cc(S(=O)(=O)N2CCOCC2)cc1C(=O)NCc1ccc(Cl)cc1 | -4.05%
COc1ccc2nc3sc(C(=O)NCc4ccc5c(c4)OCO5)cc3cc2c1 | -1.83%
O=C1NC(=O)N(c2ccccc2)C(=O)/C1=C\Nc1ccccc1C(=O)O | -4.92%
COc1ccc(CN2CCN(C3CCCCC3C)CC2)c(OC)c1OC (stereo not drawn) | 0.131%
CCS(=O)(=O)N1CCCC(C(=O)NC2CCCC(C)C2C)C1 (stereo not drawn) | -1.79%
CCCCn1c2ccccc2c2nnc(S)nc21 | 36.5%
Cc1ccccc1Oc1cc(-n2nc(C)c(C#N)c2N)ncn1 | -0.68%
